For 22 molecules, binding signal results are on record in paper PMC12136788.

Some of the results follow.

First the molecules themselves.
T1: UNK ZnF1-3 (human, UniProt Q9C0B0 31-174)
T1 sequence: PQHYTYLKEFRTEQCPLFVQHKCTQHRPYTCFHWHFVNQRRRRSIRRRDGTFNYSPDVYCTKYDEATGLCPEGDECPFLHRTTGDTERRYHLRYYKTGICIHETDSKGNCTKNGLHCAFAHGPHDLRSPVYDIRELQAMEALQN

B1: chrX:20248820:20248821:+_ENSMUSG00000001924_ENSMUST00000001989|mus_mus|mus_mus_mus_hu_True|48_68 (ssRNA)
RNA: GGGAGUUCUACAGUCCGACGAUCGGCGAAGUCCGUCACCACAAAGUCAGGUUCUGCCAGUGAGGCCGGCAAGGAUUUAAAGCUAAUCUUUUUCGGUACUUUGACCUGACUGACGAUGCCUCCACGGAUGUAGUCGGAGAAGUUCAACAGAGGAUUGAGCAUCA
B2: 105546219_105551056_2895_CDS_ENSG00000136051_ENST00000332180|human|control|control (ssRNA)
RNA: GGGAGUUCUACAGUCCGACGAUCUAGUUCUUCAAAAUUUACAAUAUCUUCAAGAUCAGGAACAAAUCUAAUGGCAUUGCUGCUACAAUGAAGACCACCAGAUCUUAUCAUUCGUACAUAGCCCAUAGCAUUACCAAUCUGGCUCAACAGAGGAUUGAGCAUCA
B3: 108138349_108140082_1765_CDS_ENSG00000110851_ENST00000228437|human|control|control (ssRNA)
RNA: GGGAGUUCUACAGUCCGACGAUCCCAUUCUGCUACUUCCAUGGAGUGACUCUGCUGGCCAAUUAGAGGUCCAAAGCAAGUCCGCACAGGAAUGGUUUCUCCAGUCCAUACACCAACUUCUGCUCCCACAAUUGACUGACGGAGCAACAGAGGAUUGAGCAUCA
B4: chr8:104447970:104447971:+_ENSG00000164934_ENST00000297579|hu_hu|hu_hu_hu_mus_False|98_98 (ssRNA)
RNA: GGGAGUUCUACAGUCCGACGAUCAUACACUUCCCUGCUUCGACUUUUGUCCACAGGAAAGAUUCUAAUAGACUUAUCAAAGCUGGCAGACACAAAUUCCUUCCCAGUGGGAGAGUAGUCCACAUCAAGUACUGCAGACACGUGCAACAGAGGAUUGAGCAUCA
B5: chr3:179287964:179287965:+_ENSG00000136518_ENST00000429709|hu_hu|hu_hu_hu_mus_True|28_108 (ssRNA)
RNA: GGGAGUUCUACAGUCCGACGAUCCUUUAGAGGUGAAAUGGCCUCCAUGUUCUCCCUGGGCACGCGGAGGGCAUUGGUGUCUAUGUAGUAGGUGGGCCCGCCCUGCUUGCCUUUAUCACCAUCAAUCUCCAUCAUUGUACUUCCCAACAGAGGAUUGAGCAUCA
B6: chr9:108650075:108650076:+_ENSMUSG00000032601_ENSMUST00000035220|mus_mus|motif|central (ssRNA)
RNA: GGGAGUUCUACAGUCCGACGAUCAGCAAUUUGUUUAUGUAAACAGCACAGAGGUUAAACAAAACAAAACAAAACAAAAACCGGCGGAAUACAAACAACAAAAACCCUAACCCAGAUAACCUUUCCUGGCUACUACUGGAAAGACAACAGAGGAUUGAGCAUCA
B7: 19555051_19555939_504_CDS_ENSG00000072210_ENST00000579855|human|control|control (ssRNA)
RNA: GGGAGUUCUACAGUCCGACGAUCUAAAUACUGAGGGAGAAGCUUUGCCAAGAUCUUGGCUGUAUUUUCACUCAGUUCAGAAGGCUUUAUAAUCACAGCAUUUCCUGCAGCGAUGGCUCCUAUCAGUGGCUGAAUGGUGAGAACCAACAGAGGAUUGAGCAUCA
B8: 160781851_160782804_7212_CDS_ENSMUSG00000057133_ENSMUST00000039782|mouse|control|control (ssRNA)
RNA: GGGAGUUCUACAGUCCGACGAUCCCUCUCUUCUCCACCUAGAGAGCUGAUGUCUAAUUUUCCAGGUUCUUUGCAGCGUGGUCUCCUCUGCUUGGGUUUGUCUGAAAAACUUGUCCCAAAGCCAGGAACAUCCAAAGAGUAGUCCAACAGAGGAUUGAGCAUCA
B9: chr18:52893488:52893489:-_ENSG00000196628_ENST00000354452|hu_hu|hu_hu_hu_mus_True|18_48 (ssRNA)
RNA: GGGAGUUCUACAGUCCGACGAUCUAUUUAGACCAUUUCCGCGGAGUUAUGGCAUUUACUCAGUGCUGAUAGGUGGAAAAACUACUUGAACAGGGAUUUUUUUUUUCCUUAAUACAUGCCAAGAAUUUGUGGCUGUCAAAACAGCAACAGAGGAUUGAGCAUCA
B10: chr2:15737528:15737529:+_ENSG00000079785_ENST00000233084|hu_mus|motif|central (ssRNA)
RNA: GGGAGUUCUACAGUCCGACGAUCUUUAAUAGUUGUUUUCCCUUUCUUUCCUUCCUGUUGGUCUUUCAGAGUUUCAUACACGGUCUGGAUAACGGGAAUACUAAAUGCACCAGUUUUUCCACUUCCUGUUUCUGCAGCCAUGAGCAACAGAGGAUUGAGCAUCA
B11: chr14:78183846:78183847:+_ENSG00000119705_ENST00000557342|hu_hu|hu_hu_hu_mus_False|28_28 (ssRNA)
RNA: GGGAGUUCUACAGUCCGACGAUCUCUCAGAAAUCUUUCUUCAUCAGAUGUUUGAGCUCCGUGCAAAGCCUUUGCUCUUUGAGCUUGAACGUGGAUCUAUGGGAGGGCUAUAAUAUGCAGAAAAGGUAAUUUUUUUUUUAAAGACAACAGAGGAUUGAGCAUCA
B12: chr12:70442348:70442349:-_ENSMUSG00000020982_ENSMUST00000021368|mus_mus|motif|central (ssRNA)
RNA: GGGAGUUCUACAGUCCGACGAUCAACCGGGUCUCCUUGAGCUUGAGCUUCUUUCACAAUCACUCCGAUUUCUGUCCAGUCGGUCUGGUUGGCCAACGCACUUCGGACUACCUGAAUGGCUCUGUCCACUAUCUGCAGGUUCAUCAACAGAGGAUUGAGCAUCA
B13: chr9:91931296:91931297:+_ENSG00000123975_ENST00000314355|hu_mus|motif|central (ssRNA)
RNA: GGGAGUUCUACAGUCCGACGAUCAGAUUAGAUGAUCCCAGCUGCACUUCAUUUUUGUUGUUCUUUUGGAAGAGGUCGUCGGAAGAGAAGAAUAUGCGGUUCUGGCUCAUGAAUCAUGUAAUGAACCCAUCCUAGACUCUGUUGCAACAGAGGAUUGAGCAUCA
B14: chr19:53463844:53463845:-_ENSMUSG00000025024_ENSMUST00000025997|mus_mus|motif|central (ssRNA)
RNA: GGGAGUUCUACAGUCCGACGAUCUCAUUUUCUCCAUUUCCAGAAAGGGCAGCUUCUACUUGCUGGAGUUGAGCUUUGUAGCGGGCCAACUGUUUUGCUAGAUCCUCUGACAUCUUGGGUGGGGCUGGGGUCGGGACGGCGGGCCAACAGAGGAUUGAGCAUCA
B15: chr1:224585847:224585848:-_ENSG00000162923_ENST00000295024|hu_hu|motif|central (ssRNA)
RNA: GGGAGUUCUACAGUCCGACGAUCUCCAAAACAUGAAUGAAUUGUAUAAAACCCUUGUGUAACACCUUGAUACUUUCUUACGGAAACUCUGUCUUGCAAGUCCCAUAAAUGAACUCCCUGAGUUGCUACAUUUAACAAAGCUAACAACAGAGGAUUGAGCAUCA
B16: chr1:8022837:8022838:+_ENSG00000116288_ENST00000493373|hu_mus|FALSE|FALSE (ssRNA)
RNA: GGGAGUUCUACAGUCCGACGAUCUCUCCUCUGCUCCUUUGGCCAGGAUGACCAGAGCUCUUUUGGAAGCCAUUUCUAUUUCUUAAAGACUGCAGCCGCGCCUCCUCCACCCACGCGAAGCCACCGCUAGUCCGCAGGAACCUCCAACAGAGGAUUGAGCAUCA
B17: 54680009_54683376_185_CDS_ENSMUSG00000020267_ENSMUST00000020504|mouse|control|control (ssRNA)
RNA: GGGAGUUCUACAGUCCGACGAUCAGGGGAAAUGUCAUGAAAAGCAAGACACCGGUCGUCCUCGAAGAUGAUCUUGGCGGGGAUUUCUUUGCGGAUGAUCUUGCCGAAGAUCGUGUCGCCGCCGGGCUGGGCCACUUGAGCCUUCAACAGAGGAUUGAGCAUCA
B18: chr11:77843920:77843921:+_ENSMUSG00000037791_ENSMUST00000049167|mus_hu|FALSE|FALSE (ssRNA)
RNA: GGGAGUUCUACAGUCCGACGAUCUUUUUUAUAUACAGAAUACAGGAAAGUUUCUGUAAAGUCUAAAACAUUACAAUUACUAUGUACAUUGGUACUGGUUGUGGGGGUGGGAGGAGAGGAGGGAACCAGGGGCAGGAGGAAGAGCAACAGAGGAUUGAGCAUCA
B19: 88696006_88696476_2492_CDS_ENSMUSG00000018428_ENSMUST00000018572|mouse|control|control (ssRNA)
RNA: GGGAGUUCUACAGUCCGACGAUCUUCUGCUCCUUGGAAUGGCAGGGUCACAAAGUCAGACCUAAUUUGCCGGAGCACGUCGACUUUCACUCUCUUAUAUCCACCAUAGUCCACGUAGCGAAUCUCCACCUCAUUGGUCUCCUCCAACAGAGGAUUGAGCAUCA
B20: chr1:39494564:39494565:+_ENSG00000168653_ENST00000372967|hu_hu|hu_hu_hu_mus_True|1_48 (ssRNA)
RNA: GGGAGUUCUACAGUCCGACGAUCAUGCAUUCGCCUCAUCGUUUUGUACCGAAGCAAGCACUCUUCGAAGUCAUCGAACUCUAUCUUGCACUCUUUCUUCGCCCGGGUCCCACCGAUCCCGUGUGCACACUCUAUCCAUUCUUUCAACAGAGGAUUGAGCAUCA
B21: chr7:75932113:75932114:+_ENSG00000106211_ENST00000248553|hu_hu|hu_hu_hu_mus_False|1_1 (ssRNA)
RNA: GGGAGUUCUACAGUCCGACGAUCCUGCGACCACUCAUCGGGCAACCGGGGCACCCCGAAAGCUUGAUCGAAGAGGCGGCUGUGUGCAGGGUACCAGUCCCGGAAUGGUUCCCAGCUCGGGCUCCGCAGCAGCGAGAGGACGCGCAACAGAGGAUUGAGCAUCA
B22: chr3:150289932:150289933:+_ENSG00000144895_ENST00000460851|hu_hu|hu_hu_hu_mus_False|18_98 (ssRNA)
RNA: GGGAGUUCUACAGUCCGACGAUCCUUGUAGUUUUUAACAUCCCACACUUCCAUUUGUCCUCGAAGAUUUCCAAAUCCAGCCAGCACUAAUAUAUGUCCAUGAGGGCUAUAGAAGGCUGCAUUACGAGGACCAGUCCCAAAGUCCAACAGAGGAUUGAGCAUCA

The assay deals with T1, UNK ZnF1-3. Kind of assay: nsRBNS (natural sequence RNA bind-n-seq); RBNS binding buffer (assumed for nsRBNS): 25 mM Tris pH 7.5, 150 mM KCl, 3 mM MgCl2, 0.01% Triton X-100, 500 ug/ml BSA, 20 U/ml SUPERase-In, 4 C; UNK is unkempt and MSI1 is Musashi-1; names of the RNAs are library labels; protein concentration not given here; high values mean tight binding.
Consider B1, for which the binding signal was 0.714 enrichment R. The result for B2 reads 1.27 enrichment R; that for B3, 1.15 enrichment R.

B4: the binding signal turned out to be 0.994 enrichment R. For B5 the value was 0.788 enrichment R; for B6, 3.18 enrichment R. The molecule B7 had a binding signal of 0.9 enrichment R.

B8 had a binding signal of 0.941 enrichment R.

For B9, the binding signal was 0.814 enrichment R. For B10 the value was 0.606 enrichment R; for B11, 1.54 enrichment R.

As to B12, the binding signal is 0.817 enrichment R. The result for B13 reads 1.17 enrichment R; that for B14, 1.15 enrichment R; that for B15, 0.918 enrichment R.

On to B16, for which the binding signal was 0.889 enrichment R. The result for B17 reads 0.716 enrichment R; that for B18, 2.1 enrichment R. The result for B19 reads 0.816 enrichment R; that for B20, 0.697 enrichment R. B21 yielded a binding signal of 0.691 enrichment R. The result for B22 reads 1.23 enrichment R.
